# Measured values reported in PubChem BioAssay AID662 (National Center for Advancing Translational Sciences (NCATS), 2007).
# Screen size: about 71,000 compounds; about 1,800 (2.5%) were called active. This list was built around the results that the source calls inconclusive (neither active nor inactive); the mix of calls is not that of the screen. Calls come from the whole dose curve; as a rule, active = well fitted activation curve with a large enough effect in the signal ratio, with a control signal flat (not every such curve was filed as active); inconclusive = small, poorly fitted or top-dose-only effect, or effect the other way, or a change in a side signal; inactive = flat fitted curve, though single readings scatter; the % refers to the signal ratio. A potency beside an inconclusive call is a rough fit, not a confirmed value.
# Experiment: Cell signaling CRE-BLA (Fsk stim); for activity change, negative = inhibition: % of control where 0% means no effect
# Conditions: CHO CRE-bla reporter (cAMP response element driving beta-lactamase), forskolin EC10, beta-lactamase ratio; activity change, negative = inhibition: at 38.2 µM (top of the series) unless noted
# Outline: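 qHTS titration format; CRE-bla CHO reporter; stimulus EC10 NKH 477, a water-soluble forskolin. Read: CCF4 460/530 nm ratio. Potency expressed as AC50 for activators or inhibitors.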
# Potency is the fitted concentration of half-maximal effect; tags give direction and shape of the fitted curve.
SMILES,Potency,"activity change, negative = inhibition"
Cc1ccccc1-n1nnnc1SCC(N)=O,"inconclusive: 3.98 µM [falling, single point]",
COc1ccc(C(c2nnnn2Cc2cccs2)N2CCC(C(N)=O)CC2)c(OC)c1 (configuration not stated),"inconclusive: 15.8 µM [rising, single point]",
CC(=O)c1ccc(O)c(CN(C2CCCCC2)C2CCCCC2)c1O,,inactive: -9.26% [at 7.6 µM]
COc1cc(-c2nnc3sc(-c4ccco4)nn23)cc(OC)c1OC,active: 1 µM,
Cc1ccnc(SCC(=O)Nc2oc(-c3ccccc3)c(-c3ccccc3)c2C#N)n1,active: 10 µM,
Cc1ccc(-c2noc(CCC(=O)N(C)c3ccccc3C)n2)cc1,,inactive
CCn1cc(C2Nc3ccccc3C(=O)N2O)c(C)n1 (configuration not stated),,inactive
CC(=O)Nc1cccc(-c2cnc3ccccc3n2)c1,"inconclusive: 10 µM [rising, single point]",
Cc1ccc(C(=O)CSc2n[nH]c(-c3ccco3)n2)cc1C,"inconclusive: 2.51 µM [rising, partial curve]",
Cc1nc(Nc2ccccc2)c2nc(-c3ccccc3)n(CCN3CCOCC3)c2n1,active: 7.94 µM,
CCCc1cc(=O)[nH]c(SCc2cc(C(=O)OC)c(C)o2)n1,"inconclusive: 12.6 µM [rising, partial curve]",
Cc1cc2c(c(=O)n1CCCn1ccnc1)C(c1ccco1)C(C#N)=C(N)O2 (configuration not stated),,inconclusive: -8.82%
COC(=O)c1ccc(C)c(NC(=O)C2COc3ccccc3O2)c1 (configuration not stated),"inconclusive: 3.98 µM [rising, partial curve]",
O=C(CNC(=O)c1ccccc1F)NC1CC1,,inconclusive: -9.26% [at 7.6 µM]
O=C(O)C1C2CCC(C2)C1C(=O)NCc1ccco1 (configuration not stated),,inconclusive: 2.49%
CC(Sc1nc2ccccc2o1)C(=O)O (configuration not stated),,inconclusive: -7.62%
CCCOn1c(OCC(C)C)nc2ccccc2c1=O,"inconclusive: 25.1 µM [rising, single point]",
Cc1nn(-c2ccccc2)c2sc(C(=O)N3CCc4ccccc4C3)cc12,active: 3.98 µM,
Cc1nc(NC2CCCCC2)c2nc(-c3ccccc3)n(CCN(C)C)c2n1,,inconclusive: 25.6%
N#Cc1cc2c(=O)n3ccccc3nc2n(CCCN2CCOCC2)c1=O,active: 10 µM,
CCOC(=O)Nc1cc(=O)c2ccccc2o1,"inconclusive: 3.16 µM [rising, single point]",
O=C(O)c1nc(-c2ccccc2)[nH]c1C(=O)O,,inactive: -9.2% [at 7.6 µM]
Cn1c(=O)c(CCc2ccccc2)nc2cnc(N3CCNCC3)nc21,"inconclusive: 15.8 µM [rising, single point]",
COC(=O)c1ccc(C(=O)OC)c(NC(=O)c2oc(C)nc2C)c1,,inconclusive: 16.8%
CCC(=O)Nc1cc(-c2nnc(OC)c3ccccc23)ccc1N1CCOCC1,"inconclusive: 6.31 µM [rising, partial curve]",
Cc1cccc2cc(C#N)c(NCCNC(=O)NC3CCCCC3)nc12,,inconclusive: 17.7%

SMILES,Potency,"activity change, negative = inhibition"
CN(Cc1ccccc1)Cc1nc2c([nH]1)c(=O)n(C)c(=O)n2C,,inactive
O=C(c1ccco1)[C@@H]1[C@@H]2C(=O)N(c3ccc(F)cc3)C(=O)[C@@H]2C2c3ccccc3C=CN21 (some centres not stated),"inconclusive: 25.1 µM [falling, single point]",
O=C1CC(c2cccs2)CC(O)=C1C=NCCN1CCNCC1 (configuration not stated),,inconclusive: 25.2% [at 7.6 µM]
COC(=O)c1ccc(NC(=O)C2CCCN2S(=O)(=O)c2ccc(F)cc2)cc1 (configuration not stated),,inactive
Cc1ccc(OCc2nnc(SCc3cc(=O)[nH]c4ccccc34)o2)cc1,"inconclusive: 12.6 µM [rising, single point]",
CCN(CC)c1ccc(NC(=O)CCCCCN2C(=O)c3ccccc3C2=O)cc1,"inconclusive: 3.98 µM [falling, full curve]",
COC(=O)c1cc(OC)c(OC)cc1NC(=O)Cn1nnc(-c2ccccc2Cl)n1,"inconclusive: 2.51 µM [rising, full curve, poor fit]",
CCOc1ccc(NC(=O)CN(C)c2nnnn2-c2ccccc2)cc1OCC,"inconclusive: 5.01 µM [falling, single point]",
c1ccc(-n2nc3c(ccc4cnnc43)[nH]2)cc1,"inconclusive: 25.1 µM [rising, single point]",
CCc1c(C)sc(NC(=O)c2cc(-c3cc(OC)ccc3OC)on2)c1C#N,"inconclusive: 15.8 µM [rising, partial curve, poor fit]",
CN(C)c1ccc(-c2cncnc2NCc2ccccc2)cc1,,inconclusive: 13.6%
Cc1cc(/C=N/n2cnnc2)c(C)n1-c1cccc(Cl)c1,"inconclusive: 10 µM [rising, single point]",
CCn1cc(C(=O)N2CC(C)CC(C)C2)c(=O)c2cc(S(=O)(=O)N(C)C)ccc21 (configuration not stated),,inactive
Cn1c(=O)n(CCc2ccccc2)c(=O)c2c1nc1n2CCCN1Cc1ccccc1,,inactive
C[C@@H](C(=O)O)c1ccc(C(=O)c2cccs2)cc1,,inactive
COC(=O)Cn1cnc2c(nnn2Cc2ccc(Cl)cc2)c1=O,,inactive
O=C(CSc1nc(-c2ccco2)cc(C(F)(F)F)n1)NCCc1ccccc1,,inactive
CCCCn1c(NC(=O)c2ccccc2)c(C#N)c2nc3ccccc3nc21,active: 10 µM,
CCOC(=O)c1ccc(NC(=O)C2C3CCC(C3)C2C(=O)O)cc1 (configuration not stated),,inconclusive: 2.74%
O=C(Nc1sc2c(c1C(=O)O)CCCCC2)c1ccco1,,inactive
O=C(N1CCCCCC1)N1CCN(S(=O)(=O)N2CCOCC2)CC1,,inconclusive: 15%
Cc1ccc(/C(O)=C2\C(=O)C(=O)N(CCCN(C)C)C2c2ccccn2)cc1 (configuration not stated),,inactive
Cn1ncc2c(Nc3ccc(-c4ccccc4)cc3)ncnc21,"inconclusive: 12.6 µM [rising, single point]",
COc1ccc(OC)c(NC2c3ccccc3C(=O)N2Cc2ccc3c(c2)OCO3)c1 (configuration not stated),,inactive
O=C(c1cc2ncc(Br)cn2n1)N1CCOCC1,,inconclusive: -11.6% [at 7.6 µM]
Cc1ccc(CNC2=NCCCCC2)n1C,,inactive
